Experimental data reported in patent US20250019414A1 (HANGZHOU SUMGEN BIOTECH, published 2025).

B1: bifunctional fusion protein CS001 (Fc fusion)
chain: QVQLVESGGGLVQPGGSLRLSCAASGSIFNIPVMGWYRQAPGKQRELVAGISTGGTTNYGDSVKGRFTISRDNAKNTVYLQMNSLKPEDTAVYYCNVLVVSGIGSTLEVWGQGTLVTVSS[sequence of human IgG1 Fc omitted]GGGGSGGGGSELQVIQPDKSVLVAAGETATLRCTATSLLPVGPIQWFRGAGPGRQLIYNQKDGHFPRVTTASDLTKRNNMDFSINIGAITPADAGTYYCVKFRKGSPDDIEFKSGAGTELSVRAKPS
notes: also called NA3S-H1 - linker - M91N
B2: bifunctional fusion protein CS002 (Fc fusion)
chain: QVQLVESGGGLVQPGGSLRLSCAASGSIFNIPVMGWYRQAPGKQRELVAGISTGGTTNYGDSVKGRFTISRDNAKNTVYLQMNSLKPEDTAVYYCNVLVVSGIGSTLEVWGQGTLVTVSS[sequence of human IgG1 Fc omitted]GGGGSGGGGSELQVIQPDKSVLVAAGETATLRCTATSLIPVGPIQWFRGAGPGRELIYNQKEGHFPRVTTVSDLTKRNNMDFSIRIGAITPADAGTYYCVKFRKGSPDDVEFKSGAGTELSVRAKPS
notes: also called NA3S-H1 - linker - 002N
B3: bifunctional fusion protein CS003 (Fc fusion)
chain: QVQLVESGGGLVQPGGSLRLSCAASGSIFNIPVMGWYRQAPGKQRELVAGISTGGTTNYGDSVKGRFTISRDNAKNTVYLQMNSLKPEDTAVYYCNVLVVSGIGSTLEVWGQGTLVTVSS[sequence of human IgG1 Fc omitted]GGGGSGGGGSELQVIQPDKSVLVAAGETATLRCTATSLVPVGPIQWFRGAGPGRNLIYNSRHGHFPRVTTVSDLTKRNNMDFSIRIGAITPADAGTYYCVKFRKGSPDDVEFKSGAGTELSVRAKPS
notes: also called NA3S-H1 - linker - M5N

Target: T1, CD47 Protein, Human, Recombinant (ECD, His Tag), Sino Biological (human, UniProt Q08722 in part)
T1 construct: extracellular domain; Bought reagent, coated on the ELISA plate; not shown: His tag
T1 sequence (Q08722 19-139 limits assumed): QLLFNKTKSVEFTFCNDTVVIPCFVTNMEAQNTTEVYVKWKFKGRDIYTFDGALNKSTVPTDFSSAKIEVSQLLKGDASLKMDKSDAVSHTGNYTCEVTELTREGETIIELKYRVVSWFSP
Test: ELISA, CD47 ECD-His coated, anti-human IgG Fc-HRP

Binder	binding result
B1	binds
B2	binds
B3	binds
